PubChem BioAssay AID720708 (National Center for Advancing Translational Sciences (NCATS), 2013)
Out of some 360,000 compounds screened, about 660 (0.18%) were called active. The inconclusive results got no clear call from the source; some entries with a clear call stand among them for comparison. The call rests on the fitted dose curve; in most records, active means well fitted inhibition curve with a large enough effect; inconclusive means small, poorly fitted or top-dose-only effect; inactive means no such curve, though single readings can be large or run the other way. Potencies of inconclusive entries are left out as doubtful fits.

Molecular target: Rap guanine nucleotide exchange factor 4 (Homo sapiens) (UniProt Q8WZA2)
Chain of UniProt Q8WZA2 (Q8WZA2 whole entry, looked up): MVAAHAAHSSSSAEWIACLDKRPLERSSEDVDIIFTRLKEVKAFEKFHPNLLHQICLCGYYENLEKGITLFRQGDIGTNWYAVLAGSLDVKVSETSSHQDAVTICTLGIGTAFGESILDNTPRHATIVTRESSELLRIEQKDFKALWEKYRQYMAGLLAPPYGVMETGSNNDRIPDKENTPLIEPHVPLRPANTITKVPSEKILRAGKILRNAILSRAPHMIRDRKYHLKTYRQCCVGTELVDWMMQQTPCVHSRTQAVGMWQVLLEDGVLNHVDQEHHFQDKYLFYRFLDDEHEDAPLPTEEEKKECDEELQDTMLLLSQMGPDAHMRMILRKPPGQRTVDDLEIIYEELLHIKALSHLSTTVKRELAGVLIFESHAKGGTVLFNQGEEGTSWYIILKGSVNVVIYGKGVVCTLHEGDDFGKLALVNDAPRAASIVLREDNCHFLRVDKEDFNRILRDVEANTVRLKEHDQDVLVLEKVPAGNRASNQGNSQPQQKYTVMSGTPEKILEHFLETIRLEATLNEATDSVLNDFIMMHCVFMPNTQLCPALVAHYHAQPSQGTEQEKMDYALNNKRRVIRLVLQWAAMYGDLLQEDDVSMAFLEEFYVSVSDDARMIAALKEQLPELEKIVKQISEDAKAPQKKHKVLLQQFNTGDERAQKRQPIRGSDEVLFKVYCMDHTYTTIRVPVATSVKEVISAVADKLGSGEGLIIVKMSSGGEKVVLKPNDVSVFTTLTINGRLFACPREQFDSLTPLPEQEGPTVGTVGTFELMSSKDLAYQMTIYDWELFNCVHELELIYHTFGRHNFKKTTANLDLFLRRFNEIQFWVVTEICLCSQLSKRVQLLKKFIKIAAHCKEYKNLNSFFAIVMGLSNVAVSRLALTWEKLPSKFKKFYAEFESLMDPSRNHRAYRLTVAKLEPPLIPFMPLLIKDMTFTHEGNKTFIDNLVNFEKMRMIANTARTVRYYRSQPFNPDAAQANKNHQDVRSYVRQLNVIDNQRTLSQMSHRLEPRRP
Assay: qHTS for Antagonist of cAMP-regulated guanine nucleotide exchange factor 2 (EPAC2): primary screen; further: nearly all actives have a fitted effect of over 45% in size
Settings: EPAC2 GEF exchange of Rap1B-BODIPY-GDP, fluorescence; series mostly up to 114 µM
Potency means the concentration at half of the fitted maximal effect; tags describe the fitted curve by direction and shape.

Structure (SMILES) | Potency
COc1ccc(CN2C(=O)CN(S(C)(=O)=O)CC2(C)C(=O)Nc2c(C)cccc2C)cc1OC (stereo not drawn) | inconclusive [inhibitor, single point]
COc1ccc(S(=O)(=O)N2CCOc3ccccc32)cc1 | inconclusive [inhibitor, partial curve]
Cc1cc(Br)c2c(c1)C(O)(N1CCCCC1C)C(=O)N2 (stereo not drawn) | inconclusive [inhibitor, partial curve]
CCc1nc2c(OCc3ccc(F)c(F)c3)cccn2c1N(C)C(=O)c1ccc(C)cc1 | inconclusive [inhibitor, single point]
O=S1(=O)CCOC[C@H](Cc2ccccc2)N1Cc1cccc(C(F)(F)F)c1 | inconclusive [inhibitor, full curve]
O=C(O)c1cc(S(=O)(=O)Nc2cc(Cl)ccc2Oc2ccccc2)ccc1O | active: 39.8 µM
COc1ccccc1NC(=O)C(C(C)C)N1C(=O)c2ccccc2C1=O (stereo not drawn) | inconclusive [inhibitor, full curve, poor fit]
CCN(CC(=O)Nc1ccccc1Br)C1CCCCC1 | inconclusive [inhibitor, partial curve]
Nc1ccc(N2CCCCC2)c2nonc12 | inconclusive [inhibitor, full curve]
CCCCNC1=CC(=O)C(=O)c2ccccc21 | inactive
COC(=O)C1=CN(c2cc(C)cc(C)c2)C=C(C(=O)OC)C1c1cccc(F)c1 | inconclusive [inhibitor, partial curve]
O=C(CCN1C(=O)CSc2ccccc21)Nc1ccc(OC(F)(F)F)cc1 | inconclusive [inhibitor, single point]
COc1ccc(C(CC(=O)N2CCCCC2)c2c(O)cc(OC)cc2OC)cc1 (stereo not drawn) | inconclusive [inhibitor, full curve]
Cc1c(C)c2ccc(OCC(=O)Nc3ccc(S(N)(=O)=O)cc3)c(C)c2oc1=O | inactive
CC(=O)c1ccc(Nc2cc(C)nc3c(C)cc(C)cc23)cc1 | inactive
CC(C)(C)c1ccc(Cn2nnc3c(=O)[nH]c(C4CCCN(C(=O)c5cccs5)C4)nc32)cc1 (stereo not drawn) | inconclusive [inhibitor, full curve, poor fit]
CC1(Cc2ccccc2Cl)C(=O)Nc2c(Cl)cccc21 (stereo not drawn) | inconclusive [inhibitor, partial curve]
O=C(c1ccc(Cl)cc1)C1C2C(=O)N(c3ccccc3)C(=O)C2C2CCCN21 (stereo not drawn) | inactive
COC(=O)c1cc(C#N)c(Oc2cccc(C)c2C)nc1C | inconclusive [inhibitor, full curve]
Cc1cc(-c2ccc(Cl)cc2)c2cnn(C(C)C)c2n1 | inconclusive [inhibitor, partial curve]
COc1ccccc1N1CCN(c2ncnc3sc(C)c(-c4ccccc4)c23)CC1 | inconclusive [inhibitor, partial curve]
COC(=O)N1[C@H](C)C=C[C@]1(Cc1ccccc1)C(=O)NCCCNc1ncc(C(F)(F)F)cc1Cl | inconclusive [inhibitor, partial curve]

Structure (SMILES) | Potency
C=CCC1[C@H](C)[C@H]2[C@@H]3CC[C@@H](C3)[C@H]2CN1S(=O)(=O)c1ccc(C)cc1 (stereo partly drawn) | inconclusive [inhibitor, full curve, poor fit]
CC1(C(=O)NCc2cccc(C(F)(F)F)c2)CCN1CCc1ccccc1 (stereo not drawn) | inconclusive [inhibitor, partial curve]
Cc1occc1C(=O)NNS(=O)(=O)c1ccc([N+](=O)[O-])cc1 | inactive
C=C(C1=CCN(S(=O)(=O)C(C)(C)C)[C@@H]1CCO)c1ccccc1 | inactive
COc1ccc(C(C)(NC(C)=O)c2nc(-c3ccc(F)c(Cl)c3)cs2)cc1 (stereo not drawn) | inconclusive [inhibitor, full curve]
COc1ccc(N2C(=O)CSC2c2cccc(F)c2)c(OC)c1 (stereo not drawn) | inconclusive [inhibitor, partial curve]
C[C@H](CO)N1C[C@H](C)[C@@H](CN(C)S(=O)(=O)c2cccc(F)c2)Oc2ncc(Br)cc2C1=O | inactive
Clc1cccc(Cl)c1Cn1ccc(C2CC2)n1 | inconclusive [inhibitor, partial curve]
Cc1ccccc1OC(C)C(=O)Nc1ccc(S(=O)(=O)Nc2nccs2)cc1 (stereo not drawn) | inconclusive [inhibitor, single point]
Cc1ccc(N(C(=O)c2ccccc2Cl)C2=NC(C)CS2)c(C)c1 (stereo not drawn) | inconclusive [inhibitor, full curve]
O=C(NCc1ccco1)c1cccc(-c2ccc3nncn3c2)c1 | inactive
CCCCCCCCN1C(=O)[C@H](CC(=O)N2CCSCC2)C[C@@]2(C(=O)OCC)CCCC=C12 | inconclusive [inhibitor, partial curve]
O=C(CC1C(=O)NCCN1Cc1ccc(-c2ccccc2)cc1)NCc1ccccc1 (stereo not drawn) | inconclusive [inhibitor, single point]
CCOC(=O)c1[nH]c2ccc(C(=O)OC)cc2c1C(=O)OCC | inactive
C=CCN(c1ccccc1)S(=O)(=O)c1cc2c(cc1C)N(C)CCO2 | inconclusive [inhibitor, partial curve]
CCN(CC)c1ccc2cc(-c3nc(-c4ccc(OC)cc4)cs3)c(=O)oc2c1 | active: 5.62 µM
CCC1Nc2ncnc(N3CCN(c4ccccc4)CC3)c2N(Cc2ccc(OC)cc2)C1=O (stereo not drawn) | inactive
COc1ccc(S(=O)(=O)N2CCN(C/C=C/c3ccccc3)CC2)cc1NC(C)=O | inconclusive [inhibitor, partial curve]
CCCCCCCCCCCCCCCCn1cc[n+](C)c1 | inconclusive [inhibitor, single point]
CCOc1ccc(S(=O)(=O)n2ccnc2)c2ccccc12 | inconclusive [inhibitor, single point]
COC(=O)c1ccccc1NC(=O)COC(=O)c1ccccc1N=Nc1ccc(N(C)C)cc1 | inactive
